# Screen size: about 150,000 compounds; about 540 (0.36%) showed an effect of 50% or more. The list shows a part of the results.
# Test system: Plasmodium falciparum
# Test: Primary screen in NF54 nanoGlo assay, in single point, at 2uM, 72h; a lower Z score goes with more inhibition
# Format: functional, Erythrocyte
# Conditions: timepoint 72 hour
SMILES,% Inhibition [%],Z score
CC1(C)CC(=O)C(C(=O)Nc2ccc(Cl)c(Cl)c2)C(=O)C1,-5,0.88
O=C(CCCS(=O)(=O)Nc1ccccc1)Nc1ccccc1,-3,0.46
CCn1cc(CN(CCO)c2ccc(C(F)(F)F)c(C#N)n2)cn1,15,-1.56
Cc1cc(C(=O)Nc2ccc(-n3ccnc3-c3ccncc3)cc2)co1,-16,2.07
O=C(Cn1c(=O)c2cc(C3CC3)nn2c2ncccc21)NCc1ccc2c(c1)OCO2,4,-0.68
CC(CS(C)(=O)=O)NC(=O)N1CCCC2CCCC21 (stereo unspecified),-7,1.08
CO[C@@H](C)CS(=O)(=O)Nc1ccnc(C#N)c1,1,-0.13
COc1cccc(CNC(=O)CCc2nc(N3CCCCCC3)c3c(C)noc3n2)c1,16,-2.44
CNC(=O)[C@H]1CCN(c2ncc(Cl)cn2)C1,1,-0.13
CCC(c1ccccc1)N1Cc2cc(NS(=O)(=O)c3ccc(F)cc3)ccc2OC(C)C1=O (stereo unspecified),11,-2.08
CCOc1ccc([C@@H]2OC(Cc3n[nH]c(=O)[nH]c3=O)=NN2C(C)=O)cc1OC,0,0.09
CO[C@H]1[C@H](NC(=O)c2ccco2)c2ccccc2C12CCN(Cc1nccn1-c1cccc(C)c1)CC2,-11,1.58
C[C@H](NC(=O)c1ccc(F)cc1)c1noc(Cc2ccccc2)n1,-3,0.35
CCOc1ccc(C(=O)OCC(=O)N[C@@H](C)c2ccc3c(c2)OCCO3)cc1OC,-8,1.08
CN(Cc1nccs1)C(=O)Nc1ccn(Cc2ccncc2)n1,-5,0.56
CCCN1CCCn2nc(CNC(=O)c3ccnc4ccc(C)cc34)cc2C1,1,-0.13
CCc1nc(CC)n(CC(=O)Nc2ccnn2C2CCCC2)n1,-3,0.5
O=C(CNC(=O)N1CCCCCC1)N1CCc2ccccc2C1,-2,0.32
N#Cc1ccccc1NC(=O)c1cccn2c(-c3ccccc3F)nnc12,-3,0.42
Cc1ccc(-n2[nH]c(C(=O)NCC3(C(F)(F)F)CC3)cc2=O)cc1,-5,0.62
COC[C@@H]1[C@H](NC(=O)c2ccc(OC)c(C)c2)[C@H]2CCO[C@H]21,-9,1.68
COc1cc(=O)n(-c2ccccc2)cc1C(=O)N1CCC(Oc2cccc3cccnc23)CC1,-9,1.71
O=C(Nc1cccc2c1CCCC2)[C@H]1CCS(=O)(=O)C1,-15,1.38

# From ChEMBL document CHEMBL4888484, “Replenishing the malaria drug discovery pipeline: Screening and hit evaluation of the MMV Hit Generation Library 1 (HGL1) against asexual blood stage Plasmodium falciparum ,using a nano luciferase reporter read-out” (2022)
